Results published in PubChem BioAssay AID624296 (National Center for Advancing Translational Sciences (NCATS), 2012).
About 9,900 (2.8%) of roughly 350,000 compounds were called active. This list was built around the results that the source calls inconclusive (neither active nor inactive); the mix of calls is not that of the screen. Calls come from the whole dose curve; as a rule, active = well fitted activation curve with a large enough effect; inconclusive = small, poorly fitted or top-dose-only effect; inactive = no such curve, though single readings can be large or run the other way. No potency is given beside an inconclusive call; the fits are too rough. The source holds several records for some structures; these can differ, active in one and inactive in another.

Experiment: A quantitative high throughput screen for small molecules that induce DNA re-replication in MCF 10a normal breast cells. For activity, positive = re-replication: % of control where 0% means no effect. Note: nearly all actives have a fitted effect of over 50% in size.
Conditions: MCF 10A DNA re-replication, Hoechst nuclear intensity, 48 h; activity, positive = re-replication: at 46.1 µM (top of the series)
Potency is the fitted concentration of half-maximal effect; tags give direction and shape of the fitted curve.

Row | Compound | Potency | activity, positive = re-replication
1 | O=C(CNS(=O)(=O)c1ccccc1)NCC(=O)OCc1ccc(Br)cc1 | inconclusive [activator, single point] | –
2 | Cc1cc(C)nc(/N=C(\N)Nc2ccc(OCCC(C)C)cc2)n1 | inconclusive [activator, single point] | –
3 | O=C(CN1CCCc2ccccc21)N/N=C/c1ccc(F)cc1F | inconclusive [activator, single point] | –
4 | CCc1ccc(NC(=O)Cn2nnc(C(=O)NCc3cccs3)c2N)cc1 | inactive | –
5 | COc1cccc(/C=N/NC(=O)C(C)n2nc(C)c([N+](=O)[O-])c2C)c1O (stereo not given) | inconclusive [activator, single point] | –
6 | Cc1ccc(NC(=O)C2CCN(S(=O)(=O)c3ccc4c(c3)OCCO4)CC2)c(O)c1 | inconclusive [activator, single point] | –
7 | OCCNCCCCSc1ccc(Cl)cc1 | inactive | –
8 | C#C[C@]1(O)CC[C@H]2[C@@H]3CCc4cc(OC5CCCC5)ccc4[C@H]3CC[C@@]21C | active: 13.3 µM | –
9 | CCn1cc(C(=O)N2CCN(c3cccc(Cl)c3)CC2)c2cc(OC)c(OC)cc2c1=O | – | inconclusive: 58.4% [activator]
10 | CCCc1ccc(Oc2coc3cc(OCC(=O)Nc4ccccc4C)ccc3c2=O)cc1 | inconclusive [activator, partial curve, poor fit] | –
11 | COc1ccc(-n2nnc3c(SCC(=O)N4CCCc5ccccc54)ncnc32)cc1 | inactive | –
12 | Cc1ccc(CNc2ccc([N+](=O)[O-])cc2C(N)=O)cc1 | inconclusive [activator, partial curve, poor fit] | –
13 | CCc1ccccc1NC(=O)CN(C)C(=O)CSc1nn(-c2ccccc2)c(=S)s1 | inactive | –
14 | C=CC(=O)N(CCC)C(c1ccccc1)c1ccccc1OC (stereo not given) | inconclusive [activator, partial curve, poor fit] | –
15 | Cc1cccc(C)c1N=C1NN=C(c2ccccc2F)CS1 | inactive | –
16 | CCc1ccc(-c2csc(-c3c[nH]c4ccccc34)n2)cc1 | inconclusive [activator, single point] | –
17 | Cc1cc(C)c(NS(=O)(=O)c2ccc3c(c2)n(C)c(=O)n3C)c(C)c1 | inconclusive [activator, single point] | –
18 | CCOC(=O)c1cc2c(=O)n3ccccc3nc2n(CCCOC)c1=NC(C)=O | inconclusive [activator, single point] | –
19 | COc1cc(OC)c(C(=O)NC2CCCCCC2)cc1OC | inconclusive [activator, partial curve, poor fit] | –
20 | Cc1csc(NC(=O)/C=C/c2ccc3c(c2)OCO3)n1 | active: 18.4 µM | –

Row | Compound | Potency | activity, positive = re-replication
21 | O=C(c1ccc(S(=O)(=O)Cc2ccccc2Cl)c([N+](=O)[O-])c1)N1CCN(c2ccccn2)CC1 | inconclusive [activator, single point] | –
22 | O=C(NCc1ccccc1)c1onc(CSc2ccc(Cl)cc2)c1C(=O)NCC1CC1 | inconclusive [activator, single point] | –
23 | O=C(Nc1ccccc1-c1nc2ccccc2s1)c1cccnc1Cl | inconclusive [activator, single point] | –
24 | COc1ccc(C(=O)NC(=S)N2CCNC(=O)C2CC(=O)OC(C)C)cc1 (stereo not given) | inconclusive [activator, single point] | –
25 | COc1ccccc1OCCCCOc1ccccc1F | inconclusive [activator, partial curve, poor fit] | –
26 | Cc1cccc(CN2CCCC(C(=O)c3ccc4c5c(cccc35)CC4)C2)n1 (stereo not given) | inconclusive [activator, partial curve, poor fit] | –
27 | O=S(=O)(NCCSCc1ccc(Cl)cc1Cl)c1ccc2c(c1)OCCO2 | inconclusive [activator, single point] | –
28 | C=Cc1ccc(Cn2nc(-c3ccccc3)ccc2=O)cc1 | inconclusive [activator, single point] | –
29 | CCc1ccc(OCCNC(=O)c2ccccc2SCc2ccc(F)cc2)cc1 | inconclusive [activator, partial curve, poor fit] | –
30 | Cc1cc(C)c(C(=O)Nc2ccc(C)c(C)c2)c(CC(C)(C)C(=O)O)c1 | inconclusive [activator, full curve, poor fit] | –
31 | Cc1cccc(N=C2NC(=O)/C(=C/c3cccs3)S2)c1 | inconclusive [activator, partial curve, poor fit] | –
32 | Cc1[nH]c2ccccc2c1C(=O)CSc1nc2ccccc2[nH]1 | inconclusive [activator, partial curve, poor fit] | –
33 | O=S(=O)(NCc1c(Cl)cccc1Oc1ccccc1)c1ccccc1 | inconclusive [activator, partial curve, poor fit] | –
34 | Cc1cccc(C)c1NC(=O)CN(C)C(=O)c1ccccc1C(=O)N(C)Cc1ccccc1 | – | inconclusive: -48.9% [activator]
35 | CCn1c(=O)c(C(=O)NCCCO)c(O)c2ccccc21 | inconclusive [activator, partial curve, poor fit] | –
36 | CC(C)(CNC(=O)c1sc2cc(Cl)ccc2c1Cl)N1CCOCC1 | inconclusive [activator, single point] | –
37 | COCCCN1C(=O)C(=O)/C(=C(/O)c2ccccc2)C1c1ccc(N(C)C)cc1 (stereo not given) | inconclusive [activator, partial curve, poor fit] | –
38 | C=CCn1c(=O)c2ccccc2n2c(SCc3nc4ccccc4s3)nnc12 | inconclusive [activator, partial curve, poor fit] | –
39 | CCc1nc(CN2CCN(c3ccc(C(F)(F)F)cn3)CC2)c(C)[nH]1 | inconclusive [activator, full curve, poor fit] | –
40 | COc1ccc(/C=C/c2nc3ccccc3c(=O)n2-c2cccc(C(=O)O)c2)cc1 | inconclusive [activator, partial curve, poor fit] | –
